Experimental data from the BET-seq Pho4 binding data (Le et al. 2018).
Some of the results follow. The energies were worked out here from pooled read counts, against the library average; single values are noisy.

Molecular target: T1, Pho4 (S. cerevisiae) (UniProt P07270)
T1 sequence: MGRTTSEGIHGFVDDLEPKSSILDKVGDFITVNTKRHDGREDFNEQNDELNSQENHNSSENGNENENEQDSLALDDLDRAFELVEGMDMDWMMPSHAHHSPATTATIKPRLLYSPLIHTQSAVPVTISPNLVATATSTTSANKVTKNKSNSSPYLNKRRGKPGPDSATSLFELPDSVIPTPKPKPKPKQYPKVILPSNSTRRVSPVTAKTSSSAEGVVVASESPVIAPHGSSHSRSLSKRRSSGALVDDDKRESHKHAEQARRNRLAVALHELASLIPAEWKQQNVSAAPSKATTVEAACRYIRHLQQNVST
Experiment: relative binding free energy (BET-seq); higher = weaker binding
Conditions: reference: library average

Sequence	relative binding free energy [kcal/mol]
CGAGTCACGTGGAGGT	0.17
TTTGTCACGTGTAAGC	0.13
GTGATCACGTGCGGGA	-0.07
TGGAGCACGTGAATGT	0.18
TGAATCACGTGGTGGG	0.18
GTTCACACGTGGGGTC	-0.09
TTTAACACGTGGTGCA	-0.07
GATTTCACGTGCTGGA	0.34
TCGGTCACGTGAGAGG	0.27
TGTGTCACGTGAGATC	0.34
CGTAGCACGTGAGATG	0.16
GCTGGCACGTGCATGG	-0.05
TAGTCCACGTGATTGT	0.17
AGTTACACGTGGTAAA	0
ACAGTCACGTGGATGT	0.15
TGGGTCACGTGGGCTT	0.04
TTCGTCACGTGTTTTG	0.11
TTTAGCACGTGGTATA	-0.19
GGTTGCACGTGGTGGC	0.04
TCGGTCACGTGTTAGG	0.22
TATGTCACGTGAGAGT	0.32
CATGGCACGTGCGTGG	-0.18
TGTATCACGTGTAAAT	0.19
GGCTACACGTGGTGGG	0.03
ATATTCACGTGTTCTT	0.13
GTATACACGTGTGTGG	0.05

Sequence	relative binding free energy [kcal/mol]
AAATGCACGTGGGAAT	-0.01
AGGGGCACGTGTAGAG	-0.05
TGTAGCACGTGTCAGA	-0.12
TGATCCACGTGGCGGG	-0.11
TGTAACACGTGAGTCA	0.28
GGAGGCACGTGAGTAT	-0.04
GGTACCACGTGATGGT	-0.1
TGGCTCACGTGTTTTC	0.34
CCTGTCACGTGGCGGT	0.06
CAGGTCACGTGGGCGC	-0.04
CGTGTCACGTGTTGTA	0.08
TAGCACACGTGTTTGT	-0.07
GATAGCACGTGAATGT	0.16
AGATACACGTGGCGGG	0.1
ATGGGCACGTGCAAGA	-0.05
CTGTGCACGTGGGTCG	-0.18
TTAATCACGTGTGCTT	0.05
TTTAGCACGTGCGGTC	-0.01
CGGGCCACGTGTTATG	0
AGTTTCACGTGCGGGG	0.28
ATGAACACGTGAGGAG	0.27
GGTCTCACGTGTTATT	0.26
GTGGTCACGTGCATGA	0.19
TTAGACACGTGGGGAT	-0.12
ACAATCACGTGGTTTT	0.12
GAGGTCACGTGTATAG	-0.08

Sequence	relative binding free energy [kcal/mol]
GTGGTCACGTGAGTGC	0.28
GGTTACACGTGATATA	0.19
GGTTGCACGTGCGAGT	-0.1
TTAAGCACGTGTTTGG	-0.06
TGGGTCACGTGTAGTA	0.17
GGTCTCACGTGAAGGT	0.31
AGTATCACGTGTCGTG	0.15
TGTCCCACGTGTAGTG	-0.05
CGGACCACGTGGGGTT	-0.12
AGGGTCACGTGTATTA	0.18
GTCATCACGTGGTATT	0.13
GAGGGCACGTGGACGT	-0.16
TTGAACACGTGATGTT	0.19
ATGGGCACGTGTGCTA	-0.08
TGGCTCACGTGTCATT	0.2
TTAATCACGTGGAGCA	0.23
CGCAGCACGTGAGGGG	0.04
GATTACACGTGGTTGT	0.06
GTGGCCACGTGGGCGG	-0.26
TGAGGCACGTGGAGGT	-0.05
TAATGCACGTGGTTAA	0.01
GTGGTCACGTGGCCAG	-0.03
GAAGGCACGTGAGATT	0.39
TTTTACACGTGTAATC	0.26
TTAGGCACGTGGGGCG	-0.27
GAGGGCACGTGTAGGC	0

Sequence	relative binding free energy [kcal/mol]
GGGGACACGTGTGGAA	0.09
GATTACACGTGGTTTT	0.25
TTACTCACGTGCGGTG	0.11
GAGACCACGTGTGTGT	0.03
AAATTCACGTGATTGT	0.25
TTGATCACGTGATAGG	0.15
AGTGACACGTGATAGT	0.17
ATTTGCACGTGCGGAA	-0.02
AGTTACACGTGAGCGT	0.16
GTGGGCACGTGGGAAA	-0.12
TGCATCACGTGTGGAT	0.17
CGGGACACGTGAGTGA	0.22
CGGTACACGTGTTAGG	0.1
TGGAGCACGTGGCGTA	-0.04
TTGGACACGTGGAGTC	0.25
TTTTACACGTGGAGGC	0.19
TTTCGCACGTGGGGGC	-0.18
GCGGGCACGTGGATTG	0.07
TTTTACACGTGTTATG	0.13
AAGGACACGTGGAAGG	-0.03
TTTTACACGTGACGGT	0.24
CTGTTCACGTGTTGCG	0.18
TAAGTCACGTGTGACG	0.11
TTGTCCACGTGTTATT	0.06
GTGGTCACGTGGTAAG	0.11
AGGCTCACGTGAGGGG	0.32

Sequence	relative binding free energy [kcal/mol]
TTACTCACGTGTTATT	-0.03
TGTCTCACGTGTAGTT	0.15
TTGTTCACGTGATCTA	0.46
GTTGGCACGTGGTTAT	0
AAGGGCACGTGAGGAT	0.08
TAGGTCACGTGGGCGG	-0.09
GTTGGCACGTGGAACT	-0.02
GTTAACACGTGTAGTT	0.18
AAGCGCACGTGTGGTG	-0.11
TTAAGCACGTGATTTA	-0.02
GTAGTCACGTGGTACG	0.02
GTGGACACGTGGCTGT	-0.07
GGTACCACGTGTTGTG	0.01
TTGAACACGTGGTCTG	-0.02
TCTGACACGTGGGATG	-0.09
TTGTTCACGTGAGCGA	0.2
GTAAGCACGTGGTGAT	-0.18
TACGTCACGTGTAGTT	0.1
TTTGCCACGTGTGTTA	-0.1
TGTTTCACGTGAGAGA	0.56
TGGGACACGTGGTTCG	0.05
AGTCGCACGTGCGTAG	-0.05
GTATTCACGTGAACGG	0.38
TTCTTCACGTGAGTAT	0.29
TTTGGCACGTGCTGTA	-0.08
TATAACACGTGAAGTT	0.29

Sequence	relative binding free energy [kcal/mol]
TTGTGCACGTGGACGA	0.02
CAGATCACGTGGGTAG	0.05
CATGGCACGTGATAGT	-0.14
AATGGCACGTGGCTGG	-0.18
GGTGTCACGTGTGCTC	0.21
CTTGTCACGTGTCGTT	0.09
GAGGACACGTGAGTGA	0.3
ATGTTCACGTGAGTGA	0.44
GATGCCACGTGAGTTG	0.17
TCGTTCACGTGCAGGG	0.18
TGGGACACGTGGAGCG	-0.04
GGATCCACGTGGTGGG	-0.03
TGTGTCACGTGCTAAG	-0.09
CTGGGCACGTGTGCAG	-0.12
GTGTGCACGTGACGGT	0.12
AGTTTCACGTGCGTTG	0.29
TAACTCACGTGGGTTG	0.15
GTTACCACGTGGAGTG	0.08
CGCAGCACGTGGGGGA	-0.15
ATAAGCACGTGAATAG	0.23
AGTTGCACGTGTTGGA	0
CAAGCCACGTGGGGGT	-0.19
TGATTCACGTGTCTTG	0.21
GGGCACACGTGTGGCG	0.01
AAGTTCACGTGACAGG	0.24
GAAGGCACGTGGTAAG	-0.03

Sequence	relative binding free energy [kcal/mol]
GGTGGCACGTGCTTAT	-0.17
AAGGTCACGTGTGGAG	0.28
GGTGTCACGTGTACTG	0.11
GGGACCACGTGGGGTT	-0.09
CGGTGCACGTGTGCGC	0.07
TGAGGCACGTGGGACG	-0.21
TATCGCACGTGTTGTC	-0.01
TCGTGCACGTGTGTTA	-0.06
TTTTTCACGTGGAATT	0.37
ACGGACACGTGGGTGA	-0.08
TGGAACACGTGAGTAT	0.4
GGCGTCACGTGATGTG	0.1
TGTTGCACGTGAAGGC	0.26
GCATTCACGTGATGTT	0.25
AGTATCACGTGGTATA	0.02
GTTGCCACGTGAGGTA	0.04
GGAGGCACGTGGGGCG	-0.15
TAGAGCACGTGTGTGA	-0.04
TTAGTCACGTGGGAGC	-0.01
TTGTCCACGTGGTGTG	0.06
TTTGGCACGTGCATGC	-0.2
GGTATCACGTGTCCGG	0.24
TGTGGCACGTGAACGT	0.17
GTAGGCACGTGGTTAG	-0.03
TTGTTCACGTGTCGTT	0.25
GGGGGCACGTGGCGGA	-0.15

Sequence	relative binding free energy [kcal/mol]
AGTGACACGTGTGCGG	-0.13
GGAGCCACGTGGGTGC	-0.2
ATGGTCACGTGTCTGA	0.06
AGCGTCACGTGTGGAT	0.06
CATGACACGTGTTGAT	0.04
GCTATCACGTGTTATG	0.2
AGTATCACGTGTGGCC	0.07
ATTATCACGTGGATAT	0.16
TGCGACACGTGGGTTA	-0.18
AGTTGCACGTGGTGTA	-0.23
GTGTTCACGTGGGAGG	0.28
TCTAACACGTGTGTTT	0.07
TAAACCACGTGGGGTT	-0.17
TGGGCCACGTGTCATG	-0.13
GGCTACACGTGGTAGT	0.07
GGTTGCACGTGCAGCG	0.08
GGATTCACGTGGCTGG	0.36
GCGGGCACGTGGGATC	-0.12
TGGGTCACGTGTTAGT	0.15
GTGTGCACGTGTGATC	0.03
TATGGCACGTGTCGGT	-0.02
ATTCTCACGTGTTAGA	0.21
ATAATCACGTGGTGGA	0.11
TGAAGCACGTGTTGTA	-0.05
TTATTCACGTGGGGAT	0.23
GTATCCACGTGTAGTG	-0.01

Sequence	relative binding free energy [kcal/mol]
AGGTCCACGTGCTGGG	0
TATTCCACGTGAGGGG	0.19
GTGTTCACGTGGTATG	0.26
TGAAGCACGTGAGTCG	0.17
TAGAACACGTGTTAGT	-0.03
AATCTCACGTGTTGAG	0.32
CGTGTCACGTGGCATG	-0.04
GGATGCACGTGGTACT	-0.05
TTAGACACGTGTAGTA	-0.19
GTGTACACGTGGATAG	0.03
ATGGTCACGTGCGCAG	0.06
GGGCGCACGTGGATTG	-0.07
GGTGACACGTGGAGAA	0.04
TTTTGCACGTGCTGAA	-0.03
TGCTTCACGTGAGTAT	0.32
TTGTGCACGTGGTACT	-0.17
ATTAACACGTGGGCAG	-0.08
GTTCTCACGTGTGTAA	0.37
TATGTCACGTGATTTG	0.27
GTGTGCACGTGCTATT	-0.12
GGTACCACGTGGGGTT	-0.13
TTTGCCACGTGTCGTG	-0.08
